Experimental data from PubChem BioAssay AID1347073 (National Center for Advancing Translational Sciences (NCATS), 2019).
About 200 (0.44%) of roughly 45,000 compounds were called active. Another 7% or so got no clear call; they are omitted. Calls come from the whole dose curve; as a rule, active = well fitted activation curve with a large enough effect; inconclusive = small, poorly fitted or top-dose-only effect; inactive = no such curve, though single readings can be large or run the other way. The list shows a part of the results.

Assay: qHTS of TDP-43 Inhibitors: NCGC Sytravon Library Screen; note: 0% is about no effect; nearly all actives have a fitted effect of over 55% in size
Details: yeast TDP-43 toxicity rescue, BacTiter-Glo growth, 24 h; series mostly up to 46.1 µM; growth rescue (activation): at the top concentration
Summary of the method: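 TDP-43-expressing yeast, pregrown in raffinose, seeded at OD600 0.02 in galactose medium with compound for 24 hr at 30 deg C. Growth read by BacTiter-Glo luminescence, so rescue of toxicity appears as activation.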

SMILES | growth rescue (activation)
Cc1nc(NC(=O)CSc2nc(N)cc(N)n2)sc1C | inactive: 4.64%
Cc1ccc(S(=O)(=O)N2CCOCC2)cc1NC(=O)CSc1ccccn1 | inactive: 11.1%
CC(Cc1ccco1)NC(=O)c1ccc(C(F)(F)F)cc1 (stereo unspecified) | inactive: 6.85%
CCC1CCCCN1CCCNC(=O)Cn1cnc2sc(C)c(S(=O)(=O)N3CC(C)CC(C)C3)c2c1=O (stereo unspecified) | inactive: 9.07%
CCOC(=O)c1cc2c(ccn2C)n1Cc1ccc(C#N)cc1 | inactive: 8.11%
CCOCCCNC(=O)CSc1nc2nc(C)c(Cc3ccccc3)c(C)n2n1 | inactive: 2.52%
O=C1OCCN1CCNCc1cn(-c2ccc(F)cc2)nc1-c1ccccc1Cl | inactive: -0.934%
Cc1cccc(Cn2cnc3c(sc4nc(C)cc(C)c43)c2=O)c1 | inactive: -0.989%
C/C(=N\Nc1ccccc1C(=O)O)c1ccncc1 | inactive: -1.5%
COc1cc(C(=O)OCC(=O)Nc2cc(-c3cc(C)c(C)cc3C)nn2-c2ccccc2)cc(OC)c1OC | inactive: 2.13%
Cc1cc(C(=O)NC(C)CCC(C)C)c2ccccc2n1 (stereo unspecified) | inactive: 11.5%
NS(=O)(=O)c1ccc(N/N=C/c2ccc(O)c(O)c2O)c([N+](=O)[O-])c1 | inactive: -4.88%
NS(=O)(=O)c1ccc(S(=O)(=O)N2CCN(C3CCCC3)CC2)cc1 | inactive: 11.2%
Cc1ccc(-c2noc(C3CCCN(C(=O)c4cccc([N+](=O)[O-])c4)C3)n2)o1 (stereo unspecified) | inactive: 12.1%
CN(C)CCCNc1nc2cc(-c3ccccc3CO)sc2c(=O)n1C | inactive: 12.2%
O=C(Nc1ccc(S(=O)(=O)N2CCCCC2)cc1)C1CCCCC1 | inactive: 12%
Cc1cccn2c(=O)c3cc(C(=O)NC4CCCCC4)sc3nc12 | inactive: -15.3%
CS(=O)(=O)N1CCC(C(=O)Nc2cccc([N+](=O)[O-])c2)CC1 | inactive: -2.78%
Clc1ccc2nc(CSCc3ccccc3)cn2c1 | inactive: 11.9%
Cc1nnc(N/N=C/c2ccc(-c3ccccc3F)o2)n1N | inactive: 11.5%
COc1ccccc1N(C)S(=O)(=O)c1ccc(C(=O)Nc2nc(C)cs2)cc1 | inactive: 6.09%
CCOC(=O)C1CCCCN1Cc1ccc(C(F)(F)F)cc1 (stereo unspecified) | inactive: 17.5%

SMILES | growth rescue (activation)
C=CCn1c(C)cc(C(=O)CSc2nnc(NC(C)C)s2)c1C | inactive: 27.2%
CCCCOc1ccc(S(=O)(=O)NCc2csc(-c3ccc(OC)cc3)n2)cc1 | inactive: 5.59%
O=C1c2cccc3cccc(c23)C(=O)N1CCN1CCN(C(=S)Nc2ccc(Cl)cc2)CC1 | inactive: -1.54%
CCc1nnc(NS(=O)(=O)c2ccc(NCc3ccccc3O)cc2)s1 | inactive: 11.4%
CC(=O)Nc1ccc(-c2ccnc3c2CC(C)(C(=O)Nc2ccc4c(c2)OCO4)O3)cc1 (stereo unspecified) | inactive: -0.711%
O=C(OCc1cc(=O)n2cc(Br)ccc2n1)c1ccc(Cl)c(S(=O)(=O)NCc2ccccc2)c1 | inactive: 10.3%
NC(=O)NC(Cc1ccccc1)C(=O)NNC(=O)COc1ccccc1Cl (stereo unspecified) | inactive: 7.77%
CCOC(=O)N1CCN(C(=S)NC2CCCCC2)CC1 | inactive: 12.4%
CCOc1ncccc1C(=O)OCC(=O)c1ccc(Br)s1 | inactive: -3.61%
COc1ccc(C2CC3(CC(C)(C)NC(SC)=N3)Oc3cc(O)cc(C)c32)cc1 (stereo unspecified) | inactive: 16.1%
Cc1ccc(C(C)C)c(OCC(=O)OCC(=O)NC2CC2)c1 | inactive: 18.4%
Cc1ccc(NC(=O)CSc2nc(C)c(C)c(C)n2)cc1S(=O)(=O)N1CCOCC1 | inactive: 4.77%
Cc1nn(C)c(C)c1NC(=O)c1cc2nc(-c3ccco3)cc(C(F)(F)F)n2n1 | inactive: 6.28%
Cc1c(Cc2ccccc2)c(=O)oc2cc(O)cc(O)c12 | inactive: 7.1%
COc1ccccc1OCCC(=O)N1CCN(c2ccccc2OC)CC1 | inactive: 28%
CCn1cc(C(=O)N(CCC(C)C)c2c(N)n(Cc3ccccc3)c(=O)[nH]c2=O)c(=O)c2ccc(C)nc21 | inactive: 5.6%
O=C(NCc1cccnc1)C1COc2ccccc2O1 (stereo unspecified) | inactive: 16.3%
Cc1ccnc(NC(=O)CCC(=O)N(CC(=O)NCCc2ccccc2)c2ccc(F)cc2)c1 | inactive: -3.78%
CCc1ccc(Oc2ncnc(N)c2[N+](=O)[O-])cc1 | inactive: 28.1%
O=C(NNS(=O)(=O)c1ccc(Cl)cc1)c1ccc(S(=O)(=O)N2CCCCC2)cc1 | inactive: 10.8%
COc1ccc(CCNC(=O)Nc2nc(C(N)COCc3ccccc3)cs2)cc1OC (stereo unspecified) | inactive: 2.93%
CCOC(=O)c1cc(-c2ccc(N3CCOCC3)cc2)nn1-c1ccccc1C(=O)O | inactive: -7.96%

SMILES | growth rescue (activation)
COc1cc2cccc(OC)c(=O)c2c(O)c1OC | inactive: 2.92%
CCN1CCN(C(=O)CN(c2ccc(F)c(Cl)c2)S(C)(=O)=O)CC1 | inactive: 0.616%
CCCCNC(=O)COC(=O)c1ccc(N(C)C)cc1 | inactive: 23.7%
COc1ccc(OC)c(NC(=O)CSc2nc(O)cc(=O)n2CC(C)C)c1 | inactive: -5.54%
COc1ccc(NC(=O)/C=C/c2ccccc2)c([N+](=O)[O-])c1 | inactive: 16.1%
CCOc1cc(/C=C2/C(=N)N3OC(C)=CC3=NC2=O)ccc1OC | inactive: 10.8%
COc1ccc2c(c1)C(=O)c1ccccc1CO2 | inactive: 40.8%
Cn1c(=O)[nH]c(=O)c2c1nc(SCC(=O)O)n2CCc1ccccc1 | inactive: -31%
O=C(CN1C(=O)NC2(CCCC2)C1=O)NCc1cccc(Cl)c1 | inactive: 0.0516%
O=C(CCN1c2ccccc2Sc2ccccc21)Oc1ccccc1 | inactive: -19.6%
O=c1[nH]nc2c3ccccc3cnn12 | inactive: 10.7%
O=C(CN(C(=O)c1csnn1)c1cccc(C(F)(F)F)c1)NCCc1ccccc1 | inactive: 5.27%
O=c1[nH]c(CN2CCN(S(=O)(=O)c3ccc4c(c3)OCCO4)CC2)nc2sc3c(c12)CCCC3 | inactive: 13.4%
COC(=O)c1ccccc1NC(=O)COC(=O)c1ccco1 | inactive: 19.6%
CC(C)NC(=O)c1ccc2c(c1)S(=O)(=O)c1ccccc1C2=O | inactive: -25.8%
COC(=O)c1ccc(NC(=O)Nc2cccc(F)c2)cc1 | inactive: 16.5%
Cc1ccc(CN2CCN(/N=C/c3ccc(N(C)C)cc3)CC2)cc1 | inactive: 4.89%
CCOC(=O)c1c(CNc2ccncc2)n(C)c2cc(Br)c(O)cc12 | inactive: -13.9%
O=S(=O)(/N=C(/Nc1nccs1)c1ccc(F)cc1)c1ccccc1 | inactive: -4.09%
CCN(CC(=O)NCc1ccc(F)cc1)Cc1cc(=O)n2ccsc2n1 | inactive: 18%
COc1ccccc1NS(=O)(=O)c1cc(NC(=O)Cn2cnc3c2c(=O)n(C)c(=O)n3C)ccc1C | inactive: -2.98%
COc1cccc(N2CCN(Cc3nnnn3C3CCCCC3)CC2)c1 | inactive: 3.88%

SMILES | growth rescue (activation)
COc1ccc(C(=O)Nc2ccnn2C2CCN(C(=O)c3cnsn3)CC2)cc1 | inactive: 2.04%
CC(C)CNc1ncnc2c1ncn2[C@H]1CN(CCN2CCOCC2)C[C@@H](CO)O1 | inactive: 4.06%
O=C(c1cc2cc([N+](=O)[O-])ccc2oc1=O)N1CCN(C2CCCCC2)CC1 | inactive: 14.6%
CCCCn1c(CCC(=O)O)nc2cc(S(=O)(=O)N(CC)CC)ccc21 | inactive: 17%
CC(C)C1N(C(=O)CN2CCCC2)CCN1S(=O)(=O)c1ccccc1 (stereo unspecified) | inactive: 16.5%
COC(=O)Cc1c(C)c2ccc(O)c(CNCc3ccc(OC)c(OC)c3)c2oc1=O | inactive: -3.87%
O=C(CSc1nnc2c(n1)[nH]c1ccccc12)Nc1nncs1 | inactive: -2.1%
CCOC(=O)NNS(=O)(=O)c1cc(Br)ccc1Br | inactive: 1.55%
CC(NS(=O)(=O)c1ccc2c(c1)C(=O)c1cc(S(=O)(=O)NC(C)C(=O)O)ccc1-2)C(=O)O (stereo unspecified) | inactive: -11.9%
CCOc1ccc(NCc2nnc(SCC(=O)Nc3nc(-c4ccccc4)cs3)n2-c2ccccc2)cc1 | inactive: 4.46%
COCCCNS(=O)(=O)c1ccc(C)cc1 | inactive: -10.5%
COc1ccc(C2=NC(C)(C)N(CC(=O)Nc3cc(OC)cc(OC)c3)C2=O)cc1 | inactive: 18.8%
COc1ccc(NC(=S)NC(C)C(c2ccccc2)N2CCOCC2)cc1 (stereo unspecified) | inactive: -12.3%
CCNC(=O)C1CCCN(C(=O)c2ccc(-c3ccccc3)cc2)CC1 (stereo unspecified) | inactive: 13%
CCN(C(=S)Nc1cc(S(=O)(=O)N2CCOCC2)ccc1Cl)c1cccc2ccccc12 | inactive: 6.2%
N#Cc1ccc(Cl)cc1NC(=O)COC(=O)[C@H](CCC(N)=O)NC(=O)c1ccc(F)cc1 | inactive: -8.86%
CC(C)OC(=O)/C(C#N)=C\c1cccnc1 | inactive: -0.102%
C=CCc1ccc(OCCOCCOc2cccc3cccnc23)c(OC)c1 | inactive: -4.17%
O=C(Nc1cc(Cl)ccc1N1CCOCC1)C1CC1 | inactive: 31.6%
Cc1cc(C)c(NC(=O)COC(=O)c2ccncc2)c(C)c1 | inactive: 4.01%
O=C(Cc1ccccc1)NNC(=S)Nc1ccccc1 | inactive: -4.93%
Cc1cccc(OCC(=O)Nc2ccc3c(c2)nc(CN2CCCCC2)n3C)c1 | inactive: -23.5%

SMILES | growth rescue (activation)
COc1ccccc1CNC(=O)N1CCN(S(=O)(=O)c2ccccc2)CC1 | inactive: 3.26%
Cc1onc(-c2ccccc2Cl)c1C(=O)N1CCCCC1 | inactive: 11.1%
O=C(CSCc1ccc(C(=O)O)cc1)Nc1ccccc1 | inactive: -4.5%
COc1ccc(-c2c(C)[nH]n3c(=O)c(Cc4ccccc4)c(C)nc23)cc1OC | inactive: 10.5%
CNc1nc(NCCOC23CC4CC(CC(C4)C2)C3)nc(OCC(F)(F)F)n1 | inactive: 24.3%
CCn1c(=O)c2c(nc(SCC(=O)NC3CCCC3)n2C)n(C)c1=O | inactive: -8.32%
O=C(CCS(=O)(=O)c1ccccc1Cl)NC1CCCCCC1 | inactive: 25.6%
O=C(COC(=O)/C=C/c1ccccc1Cl)NCC1CCCO1 (stereo unspecified) | inactive: 6.37%
CC(=O)NC1(c2nnnn2CCOC(=O)Nc2ccc(Cl)cc2)CCCC1 | inactive: 7.89%
CN(C(=O)COC(=O)c1cc(-c2ccccc2Cl)nc2ccccc12)C1CCS(=O)(=O)C1 (stereo unspecified) | inactive: 6.71%
COc1ccc(C(=O)N(Cc2sccc2C)C2CCS(=O)(=O)C2)cc1 (stereo unspecified) | inactive: 11.8%
COCC(=O)N/N=C(\C)CC(=O)NCc1ccco1 | inactive: -12.2%
O=C(CNc1ccc2ccccc2c1)N/N=C/c1ccc([N+](=O)[O-])o1 | inactive: 14.5%
O=C(CCN1C(=O)/C(=C/c2ccccc2Cl)SC1=S)NNC(=O)c1ccccc1O | inactive: 1.25%
CCCCOC(=O)C[N+](C)(C)CCOC1CC2CCC1(C)C2(C)C (stereo unspecified) | inactive: -0.199%
COc1ccc(C=O)cc1Cn1c(=O)n(CCC(=O)NCc2ccco2)c(=O)c2sccc21 | inactive: 2.45%
COc1cc(O)c(/C=N/NC(=O)c2ccncc2)c(OC)c1[N+](=O)[O-] | inactive: 7.59%
Fc1ccc(-c2[nH]ncc2CN(CC2CCC2)CC2CCCO2)c(F)c1 (stereo unspecified) | inactive: 10.9%
